Out of some 310,000 compounds screened, about 14,000 (4.5%) showed an effect of 50% or more. The effect is printed as a negative number. The list shows a part of the results.
What follows are compounds tested against human ether-à-go-go-related gene (hERG) potassium channel (human, UniProt Q12809) (assay: primary screen, population patch clamp on CHO cells stably expressing hERG).
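Note: peak tail current of the secondary pulse compared with the same well before compound.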

Chain of human ether-à-go-go-related gene (hERG) potassium channel (Q12809 whole entry, looked up): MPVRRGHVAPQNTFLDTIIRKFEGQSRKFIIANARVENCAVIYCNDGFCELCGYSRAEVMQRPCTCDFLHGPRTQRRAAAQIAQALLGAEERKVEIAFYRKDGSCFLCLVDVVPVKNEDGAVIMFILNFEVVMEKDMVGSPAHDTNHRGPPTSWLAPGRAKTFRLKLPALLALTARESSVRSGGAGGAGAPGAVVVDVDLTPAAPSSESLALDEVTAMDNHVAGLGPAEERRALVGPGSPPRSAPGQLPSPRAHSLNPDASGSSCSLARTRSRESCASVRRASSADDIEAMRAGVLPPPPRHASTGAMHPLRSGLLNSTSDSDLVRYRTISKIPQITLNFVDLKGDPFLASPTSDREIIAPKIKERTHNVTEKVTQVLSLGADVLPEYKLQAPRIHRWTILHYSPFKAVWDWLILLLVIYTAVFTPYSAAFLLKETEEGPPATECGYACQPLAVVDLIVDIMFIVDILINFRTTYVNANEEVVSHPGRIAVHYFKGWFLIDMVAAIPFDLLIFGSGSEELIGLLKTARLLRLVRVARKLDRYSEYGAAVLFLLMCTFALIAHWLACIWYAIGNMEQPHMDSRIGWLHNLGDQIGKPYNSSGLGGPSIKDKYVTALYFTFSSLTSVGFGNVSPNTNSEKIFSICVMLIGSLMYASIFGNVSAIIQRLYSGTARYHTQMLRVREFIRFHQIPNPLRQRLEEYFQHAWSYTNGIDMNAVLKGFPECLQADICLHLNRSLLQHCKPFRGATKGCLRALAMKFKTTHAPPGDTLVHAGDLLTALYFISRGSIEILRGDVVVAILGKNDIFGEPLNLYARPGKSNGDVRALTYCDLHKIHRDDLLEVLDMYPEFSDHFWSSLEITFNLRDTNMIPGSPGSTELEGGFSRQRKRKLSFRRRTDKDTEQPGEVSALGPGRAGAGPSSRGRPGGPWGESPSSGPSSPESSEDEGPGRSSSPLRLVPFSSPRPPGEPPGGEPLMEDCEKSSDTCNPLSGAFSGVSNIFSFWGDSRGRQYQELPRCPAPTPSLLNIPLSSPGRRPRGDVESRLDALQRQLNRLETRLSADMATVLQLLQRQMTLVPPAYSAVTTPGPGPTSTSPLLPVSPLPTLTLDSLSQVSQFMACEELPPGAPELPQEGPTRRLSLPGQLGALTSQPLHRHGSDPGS

Structure (SMILES)	hERG current change (%, negative = inhibition) at 10uM [%]
Cc1cc(C)nc(NS(=O)(=O)c2ccc(NC(=O)c3ccco3)cc2)n1	0.81
Cc1ccnc(SC2CC(=O)N(c3ccc(C(C)C)cc3)C2=O)n1 (centres unmarked)	0.452
C=C1CCN([C@H](C(=O)NCc2ccc(Cl)cc2)C(C)C)S(=O)(=O)c2ccccc21	-6.02
COc1cccc(C2CC(C(F)(F)F)n3ncc(C(=O)O)c3N2)c1 (centres unmarked)	19.3
COc1ccc(N(C(=O)COc2ccccc2OC)S(=O)(=O)c2ccc(C)cc2)cc1	5.52
COc1ccc(C(=O)NNc2ccccc2)cc1	-3.28
C[C@]12CCC(=O)C[C@@H]1CC[C@@H]1[C@@H]2CC[C@]2(C)[C@@H](C(=O)COC(=O)CCC(=O)O)CC[C@@H]12	20.4
O=C(NNC(=O)c1sccc1-n1cccc1)c1ccc(F)cc1	-5.95
O=C(Cn1cc(C(F)(F)F)ccc1=O)N1CCN(S(=O)(=O)c2ccc(Cl)cc2)CC1	-8.9
Cl.NCCCC(=O)N1c2ccccc2Sc2ccccc21	-15.8
Cc1nnc(NC(=O)CSCc2c(C)noc2C)s1	-2.88
COCC(C)n1c(SCC(=O)N(C)C2CCS(=O)(=O)C2)nc2ccccc2c1=O (centres unmarked)	9.86
Cc1c(N2C(=O)CSC2c2ccccc2)c(=O)n(-c2ccccc2)n1C (centres unmarked)	18.5
O=C(NCc1ccco1)c1ccccc1SCC(=O)N1CCCC1	-4.74
COc1ccc(NC(=O)COc2coc(CN3CCN(c4ccccc4)CC3)cc2=O)cc1	11.5
COCCNC(=O)COC(=O)/C=C/c1c(C)nn(Cc2ccc(Cl)cc2Cl)c1Cl	-9.14
CCn1c2ccccc2c2cc(NC(=O)Cc3ccc(S(=O)(=O)N4CCOCC4)s3)ccc21	-2.48
Cc1ccsc1C(=O)N1CCN(S(=O)(=O)c2cccc(F)c2)CC1	-8.65
COc1ccc(N2C(=O)CC(C#N)=C2N)cc1	27.8
Cc1ccc(NC(=O)/C(=C\c2ccccc2)NC(=O)c2ccco2)cc1	-13
O=C(O)c1ccc2c(=O)n3c(nc2c1)/C(=C/c1ccc(C(F)(F)F)cc1)CC3	11.6
O=C(NCCN1CCCC1)c1ccc2c(c1)N(Cc1cccc(Cl)c1)C(=O)c1ccccc1S2(=O)=O	-20.7

Structure (SMILES)	hERG current change (%, negative = inhibition) at 10uM [%]
CCNC(=S)NNC(=S)NCc1ccccc1	13
CC(C)(C)c1[nH]ncc1[N+](=O)[O-]	13.8
CCOC(=O)C1CCN(S(=O)(=O)c2ccc(-c3ccccn3)s2)CC1	-5.46
Cn1c(COc2ccc(Cl)cc2)nnc1SCC(=O)NC1CCCCC1	-2.02
COCCn1nnnc1C(c1cccs1)N1CCN(c2nc3ccccc3s2)CC1 (centres unmarked)	-25.3
Cc1cccc(N(CC(=O)Nc2ccccc2F)S(C)(=O)=O)c1	0.848
Cc1nc(N)sc1-c1csc(Nc2ccc(Cl)cn2)n1	3.85
Fc1ccccc1/C=N/n1cnnc1	22.9
CCCCOc1ccccc1C1C(C(=O)OC)=C(C)N(C)C(C)=C1C(=O)OC	-3.3
COc1ccc(CC(=O)Nc2nc(C(C)(C)C)cs2)cc1	-1.81
CC(=O)Nc1ccc(OCC(=O)NC(C)C(C)C)cc1 (centres unmarked)	12.6
COc1cc(/C=N\NC(=O)c2ccc(-c3ccccc3)cc2)ccc1OCC(N)=O	19.6
COc1cc(N(C(=O)Cc2cccs2)C(C(=O)NC2CCCCC2)c2ccc(C)cc2)ccc1-n1cnnn1 (centres unmarked)	7.08
COc1ccc(N(CC(=O)N2CCOCC2)S(C)(=O)=O)c(OC)c1	10.8
CCN1CCN(C(=S)NCc2ccc(C)cc2)CC1	-7.93
O=C(Nc1ccc2c(c1)oc1ccccc12)c1ccc2c(c1)OCO2	15.1
COc1ccc(S(=O)(=O)Nc2ccc(S(=O)(=O)N(C)C)cc2)cc1[N+](=O)[O-]	-1.26
O=C(Nc1ccc(Cl)cc1)Nc1ccccc1NS(=O)(=O)c1cccs1	23.6
COc1ccccc1C(=O)NC(C)c1ccccc1 (centres unmarked)	18.6
Cc1ccc(CCNC(=O)NC(C)(C)C)cc1	1.58
Cc1nn(-c2ccc(F)cc2)c(Cl)c1/C=C(\CC(=O)O)c1nc2ccccc2s1	-9.29
O=C(Nc1ccc(S(=O)(=O)N2CCCCC2)cc1)c1ccc(CN2CCOCC2)cc1	-46.5

Reference: PMC4336329 (PLoS ONE, 2015)
